{"source": "paper PMC12136788", "binders": {"B1": {"name": "chr17:64801638:64801639:+_ENSG00000154229_ENST00000413366|hu_mus|hu_hu_hu_mus_False|1_68 (ssRNA)", "RNA": "GGGAGUUCUACAGUCCGACGAUCUAUAUAUAUAUAUACAUAUGUACACAUAUAUAGUAAAACCCUAAUCUAUCACGUAAAGUAGCCAUUCAUUUUUAAAAUUACAUCUACAUUAAAAAAUUAAUAUAUCUGAUAGAGUGCCCACAACAGAGGAUUGAGCAUCA"}, "B2": {"name": "37163817_37168505_2464_3pUTR_ENSG00000170471_ENST00000397040|human|control|control (ssRNA)", "RNA": "GGGAGUUCUACAGUCCGACGAUCAGCUGGCCGACUACACUGAUAAACAAUGUAGGUGCACACAGAACUGAUGGCUCGCUUCCGGUCUCCUGAGUCAACCAUCACUUUUACCUUUGCAAGGCCAGAGAGGAGCUCUAGAGCUGCCAACAGAGGAUUGAGCAUCA"}, "B3": {"name": "chr1:163112212:163112213:-_ENSG00000143248_ENST00000313961|hu_hu|hu_hu_hu_mus_False|8_68 (ssRNA)", "RNA": "GGGAGUUCUACAGUCCGACGAUCUUUUAUUAUCAGUAAGAGUGAGUUACAUACUAGGCAAAGUAUUGAAUACAAAAAUCAGGAAACAAACACUAUUGGUCCAGAAUUUAAAACUUUAUGAGCGAAGGCUUACAAAUGGACUUACAACAGAGGAUUGAGCAUCA"}, "B4": {"name": "chr20:44444512:44444513:+_ENSG00000175063_ENST00000356455|hu_mus|motif|central (ssRNA)", "RNA": "GGGAGUUCUACAGUCCGACGAUCCAGGUAUUUCUUAAAUGCUGUGGGGUUUUUCCAGAGUUCCGCAGCGUGUGUGUUCAAAGGGCGGUCGAUGUUGGGUUCUCCUAGCAGGCUCUGGAUAGAGAGCAAGAUAGUCCUGACAUCCAACAGAGGAUUGAGCAUCA"}, "B5": {"name": "56724551_56724671_207_CDS_ENSMUSG00000071054_ENSMUST00000095224|mouse|control|control (ssRNA)", "RNA": "GGGAGUUCUACAGUCCGACGAUCCCGCGUCCCGGUCUCUGACGCCGCGGAGCUCACGGCCGCCGCGCCCGCCGCACUCGCGUCUCCUAAACCCGACAGAGUCUCCGCCAUUCCAGGGACCCUGGUUCCGUCGCCCACUUCACACAACAGAGGAUUGAGCAUCA"}, "B6": {"name": "chr13:31711309:31711310:-_ENSG00000120694_ENST00000320027|hu_mus|motif|central (ssRNA)", "RNA": "GGGAGUUCUACAGUCCGACGAUCAGAGACUACACAGAUUCAAGCUUUUCCUUUUUUCCCCUCAUAAUACACAAAAUUUCGGGACAGUCUUAAAAAAAAGAAAAUAUAAAUAGACUCAGUCUGUUAUACAGGAUCACAUACUAUCAACAGAGGAUUGAGCAUCA"}, "B7": {"name": "chr9:14812383:14812384:-_ENSMUSG00000031934_ENSMUST00000164273|mus_hu|FALSE|FALSE (ssRNA)", "RNA": "GGGAGUUCUACAGUCCGACGAUCAUAGCCCAGGUAGAUACACGCUAACAGUAUAAUGAUGAGUGUCAGCAGGCGGCAGCUAAUGUACUUGAUGAUUAAAUUAUUAGAAUUUUUCUUUGUCUUCAAGUACUGCUCCACAAUUGGCAACAGAGGAUUGAGCAUCA"}, "B8": {"name": "224577001_224577121_2655_3pUTR_ENSG00000162923_ENST00000295024|human|control|control (ssRNA)", "RNA": "GGGAGUUCUACAGUCCGACGAUCCGGGCAAGGCUAGAAUCCAUGAACCAAGCUGCAAAGAUCUCAAGCUAAAUAAGGCGGAAAGAUUUGGAGAAACAAAAGAAGGAAAUUCUUUCCUAUCCAAUGUAUACUCUUCAGACUAAUCAACAGAGGAUUGAGCAUCA"}, "B9": {"name": "chr11:12883819:12883820:+_ENSG00000187079_ENST00000361905|hu_mus|FALSE|FALSE (ssRNA)", "RNA": "GGGAGUUCUACAGUCCGACGAUCAAUGUGACUAGACACCUGCUUCCUGGUCCUUGUCUUUCCCGUCCUGAGUUUGAUGUAUCUGGCUAUCAAUUCAUUUCUACCAUACAUUUUGCCUUCGUCUGAUAAGAUGAUUUUUCUCCUCAACAGAGGAUUGAGCAUCA"}, "B10": {"name": "chr9:66341014:66341015:+_ENSMUSG00000038664_ENSMUST00000042824|mus_hu|FALSE|FALSE (ssRNA)", "RNA": "GGGAGUUCUACAGUCCGACGAUCCCAUGCAGCACUGUGGCAGCGGCCAGCCGAGAUCUGCCGAACAUUUUUCCCUUGCAGACCUGUUACCAGGGUUGGUUCUCGAACAUGGUUGGUAUGGCCUAAGCCGAGCUGCCCUUCUGACAACAGAGGAUUGAGCAUCA"}, "B11": {"name": "chr3:75345182:75345183:-_ENSMUSG00000027835_ENSMUST00000161137|mus_mus|motif|central (ssRNA)", "RNA": "GGGAGUUCUACAGUCCGACGAUCAAGUGGUCUCAGCUUCAUUCUUCAUCUCUUCCAUUGUCAUCCUCAUUCAAAAGCCAACGGCAGUAGAAAAAGCAAUGCUAAAAUGCAGAGGAAUCUUCAUUCACUGCCGAAUUUCUUCCCCAACAGAGGAUUGAGCAUCA"}, "B12": {"name": "30705002_30707723_1052_CDS_ENSMUSG00000040850_ENSMUST00000041231|mouse|control|control (ssRNA)", "RNA": "GGGAGUUCUACAGUCCGACGAUCUCUCAGAAUUCUUGUAAAUAUCUUCGGUACAUAUGGAUCCCAAUCUAUGUAUCCUAUAUUAUCUGUAGCCAAUCGAGCAAAGAGAUUUACUAAUUGCCCCUCCCACUGUGGGAGAUUUUGCAACAGAGGAUUGAGCAUCA"}, "B13": {"name": "32298048_32364075_478_5pUTR_ENSMUSG00000040451_ENSMUST00000099514|mouse|control|control (ssRNA)", "RNA": "GGGAGUUCUACAGUCCGACGAUCCUUCUCCGCGUGUUCCAGUAGGUCUCCAUUACCUCAAUCAUGCUGUUACUUUUCUUCAUCAGUCUUUCUUCCGGUCUGUGCUGUCUUGUAUAUUAUAUGCCCGGCUCUGUGCUCCAAAUGCAACAGAGGAUUGAGCAUCA"}, "B14": {"name": "chr11:77336104:77336105:-_ENSG00000074201_ENST00000525064|hu_mus|hu_hu_hu_mus_False|58_108 (ssRNA)", "RNA": "GGGAGUUCUACAGUCCGACGAUCCUCGCACAUUGCAGUGAACAUCGCCUCCAAUGCUGACUUAUCACUGGGCACAAAUCUAAAUUCAGAAAUGGGUUCAACAUCAUCAUUGUCUUCCUCAUCUUCAUCAGAGAGAGGUUCUUUCAACAGAGGAUUGAGCAUCA"}}, "note": "Some of the results follow."}
{"target": "T1, UNK ZnF1-3 (human, UniProt Q9C0B0 31-174)", "T1 sequence": "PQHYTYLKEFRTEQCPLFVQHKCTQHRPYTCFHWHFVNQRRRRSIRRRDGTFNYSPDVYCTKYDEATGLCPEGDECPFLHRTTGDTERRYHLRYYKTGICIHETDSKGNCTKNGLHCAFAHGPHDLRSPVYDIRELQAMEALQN", "assay": "nsRBNS (natural sequence RNA bind-n-seq); RBNS binding buffer (assumed for nsRBNS): 25 mM Tris pH 7.5, 150 mM KCl, 3 mM MgCl2, 0.01% Triton X-100, 500 ug/ml BSA, 20 U/ml SUPERase-In, 4 C; UNK is unkempt and MSI1 is Musashi-1; names of the RNAs are library labels; protein concentration not given here; high values mean tight binding", "units": {"binding signal": "enrichment R"}}
{"binder": "B1", "binding signal": 1.27}
{"binder": "B2", "binding signal": 1.2}
{"binder": "B3", "binding signal": 0.861}
{"binder": "B4", "binding signal": 0.637}
{"binder": "B5", "binding signal": 0.903}
{"binder": "B6", "binding signal": 2.18}
{"binder": "B7", "binding signal": 1.33}
{"binder": "B8", "binding signal": 1.48}
{"binder": "B9", "binding signal": 0.417}
{"binder": "B10", "binding signal": 0.633}
{"binder": "B11", "binding signal": 0.96}
{"binder": "B12", "binding signal": 0.711}
{"binder": "B13", "binding signal": 0.539}
{"binder": "B14", "binding signal": 1.02}
